What was measured:
[1] = target: T1, human RhoGDI (2–204) (human, UniProt P52565 2-204); assay: SPR; unprenylated RhoA:GDP:Mg2+ immobilised by amine coupling on CM5 chip; BIAcore T200, 22°C; 10 mM HEPES, 50 mM NaCl, 0.005% Surfactant P20, pH 7.0 (1 mM MgCl2 and 100 µM GDP for RhoGDI); steady-state analysis, one binding site model; conditions: both partners purified
T1 construct: 15N- or 13C,15N-labelled in some NMR samples; source: E. coli SoluBL21 (DE3), purified (Ni-NTA, gel filtration Superdex 75 and/or ion exchange)
T1 sequence (looked up): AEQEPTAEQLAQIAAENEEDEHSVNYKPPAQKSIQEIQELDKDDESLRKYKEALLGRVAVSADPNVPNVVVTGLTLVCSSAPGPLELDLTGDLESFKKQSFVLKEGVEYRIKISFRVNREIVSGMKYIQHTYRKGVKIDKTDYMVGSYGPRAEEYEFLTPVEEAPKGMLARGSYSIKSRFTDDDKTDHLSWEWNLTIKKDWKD

[2] = target: T2, RhoGDI complexed with p75^NTR DD (molar ratio 1:2) (human, UniProt P52565 2-204; P08138 330-427); assay: as above; conditions: both partners purified
T2 construct: RhoGDI, human, residues 2-204; p75 neurotrophin receptor, human, death domain, residues 330-427; 1:2 is the ratio in which the two proteins were mixed, not a measured stoichiometry; also called RhoGDI precomplexed with purified p75^NTR DD; source: E. coli SoluBL21 (DE3), purified proteins mixed
T2 sequence (looked up) 1: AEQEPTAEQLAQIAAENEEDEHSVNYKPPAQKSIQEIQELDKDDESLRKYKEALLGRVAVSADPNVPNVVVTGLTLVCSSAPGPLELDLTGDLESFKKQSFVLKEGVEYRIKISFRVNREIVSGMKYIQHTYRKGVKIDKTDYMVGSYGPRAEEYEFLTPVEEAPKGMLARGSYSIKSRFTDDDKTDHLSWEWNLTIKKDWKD
T2 sequence (looked up) 2: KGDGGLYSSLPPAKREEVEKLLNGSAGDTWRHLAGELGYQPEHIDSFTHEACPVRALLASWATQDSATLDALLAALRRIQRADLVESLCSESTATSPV

B1: human RhoA ([…]), unprenylated RhoA:GDP:Mg2+ (natural protein)
chain: not shown
notes: RhoA, human, […]; source: E. coli SoluBL21 (DE3), purified (Ni-NTA, gel filtration Superdex 75 and/or ion exchange)
A Kd [1] of 140 ± 10 nM and a Kd [2] of 2200 ± 110 nM were found for B1 in this work.

Reference: paper PMC4739766 (eLife, 2015)
